# “And” between values parts separate entries of the source, which are not always exact repeats. Equal values may be shown once. Inconclusive results, whose numbers are uncertain, are shown with a selection of clear calls. A potency beside an inconclusive call is a rough fit, not a confirmed value. More than one record can exist for a structure, and the calls need not agree. The source made the active and inactive calls. Unless noted, the call rests on the fitted dose curve; in most records, active means well fitted curve in the direction sought with a large enough effect in the repeat runs; inconclusive means weak or mixed curves; inactive means no such curve, though single readings can be large; an effect the other way counts as inactive or inconclusive.
# How the values were obtained:
# [1] = biological target: Nuclear receptor subfamily 1 group I member 2 (Homo sapiens) (UniProt O75469); assay: CYP3A4 induction through human pregnane X receptor (PXR) by small molecules, qHTS assay (AID 1346984); conditions: DPX-2 HepG2 PXR, CYP3A4-luciferin luminescence, 24 h; series mostly up to 46.1 µM; further: nearly all actives have a fitted effect of over 40% in size
# Outline: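 Induction measured in HepG2-based DPX-2 cells co-expressing human PXR and a CYP3A4 promoter-driven luciferase. After a 24-hour compound exposure, cells received CYP3A4 luciferin substrate at 3uM final for 3 hours, and light output was then recorded.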
# [2] = qHTS assay for small molecules that induce genotoxicity in human embryonic kidney cells expressing luciferase-tagged ATAD5 (AID 651632); further: nearly all actives have a fitted effect of over 15% in size
# Outline: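 Quantitative HTS in HEK293T expressing luciferase-tagged ATAD5, whose levels rise upon DNA damage. Exposure ran 16 hr at 37C and 5% CO2, with luminescence read 30 min after Amplite addition at room temperature.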
# [3] = biological target: Androgen receptor (Homo sapiens) (UniProt P10275); assay: qHTS assay to identify small molecule antagonists of the androgen receptor (AR) signaling pathway using the MDA cell line (AID 743042; further: nearly all actives have a fitted effect of over 55% in size)
# Outline: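 Antagonist mode: compounds plus R1881 agonist added to MDA-kb2 AR-luc cells, incubated 16 h at 37C. Luciferase reporter luminescence quantified, with multiplexed CellTiter-Fluor readout for cell viability.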
# [4] = qHTS assay for small molecule agonists of the p53 signaling pathway - cell viability (AID 651633; calls by dose curve; further: nearly all actives have a fitted effect of over 30% in size)
# Outline: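 Viability counter-read: CellTiter-Glo luminescence (30 min, room temperature) in the same p53RE-bla plates. These plates had been exposed to compounds for 16 h at 37 C.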
# [5] = qHTS assay for small molecule disruptors of the mitochondrial membrane potential - cell viability (AID 720634; calls by dose curve; further: nearly all actives have a fitted effect of over 20% in size)
# Outline: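 ATP-based luminescent viability readout (CellTiter-Glo, 30 min, room temperature) in HepG2 cells multiplexed with the m-MPI membrane potential dye; compound exposure lasted 1 hr at 37 C.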
# [6] = qHTS assay to test for compound auto fluorescence at 460 nm (blue) in HEK293 cell free culture (AID 720681)
# Outline: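 Blue fluorescence (Ex 405/Em 460 nm, triamterene-equivalent) was read immediately after pin transfer of compound or DMSO into medium (DMEM, 10% FBS) without cells.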
# Potency means the concentration at half of the fitted maximal effect; tags describe the fitted curve by direction and shape.
# Chain of UniProt P10275 (P10275 whole entry, looked up): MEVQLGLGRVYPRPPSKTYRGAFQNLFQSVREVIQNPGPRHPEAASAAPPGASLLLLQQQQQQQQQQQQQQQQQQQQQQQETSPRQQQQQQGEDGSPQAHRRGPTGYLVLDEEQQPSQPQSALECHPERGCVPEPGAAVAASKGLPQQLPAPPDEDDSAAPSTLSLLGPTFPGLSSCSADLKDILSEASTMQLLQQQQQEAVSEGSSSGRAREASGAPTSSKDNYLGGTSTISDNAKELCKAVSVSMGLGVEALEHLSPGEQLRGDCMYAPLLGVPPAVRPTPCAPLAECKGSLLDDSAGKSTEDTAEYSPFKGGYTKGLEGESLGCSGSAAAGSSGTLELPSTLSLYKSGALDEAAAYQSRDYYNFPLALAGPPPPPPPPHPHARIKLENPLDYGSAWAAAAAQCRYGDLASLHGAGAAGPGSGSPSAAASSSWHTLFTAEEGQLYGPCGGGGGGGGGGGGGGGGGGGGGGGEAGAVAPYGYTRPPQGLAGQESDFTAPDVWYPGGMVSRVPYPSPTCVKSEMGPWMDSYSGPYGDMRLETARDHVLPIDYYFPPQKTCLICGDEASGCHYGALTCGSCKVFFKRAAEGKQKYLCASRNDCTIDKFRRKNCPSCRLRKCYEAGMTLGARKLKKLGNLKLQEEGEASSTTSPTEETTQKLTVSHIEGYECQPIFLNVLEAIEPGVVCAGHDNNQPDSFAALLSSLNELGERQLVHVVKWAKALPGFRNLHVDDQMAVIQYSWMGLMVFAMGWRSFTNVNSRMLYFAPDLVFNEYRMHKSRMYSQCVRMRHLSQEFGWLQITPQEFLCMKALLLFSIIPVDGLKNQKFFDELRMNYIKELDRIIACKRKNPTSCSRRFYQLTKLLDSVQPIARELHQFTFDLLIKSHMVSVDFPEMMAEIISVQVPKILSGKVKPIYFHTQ
smiles,measurement,setting,value
O=C(CCCN1CCC(C(=O)c2ccc(F)cc2)CC1)c1ccc(F)cc1,Potency,[1],"inconclusive: 1.26 µM [activator, full curve, poor fit]"
CO[C@@H]1[C@@H](O[C@@H]2O[C@H](C)[C@@H](O[C@H]3C[C@@](C)(O)[C@@H](OC(=O)CC(C)C)[C@H](C)O3)[C@H](N(C)C)[C@H]2O)[C@@H](CC=O)C[C@@H](C)C(=O)/C=C/C2OC2C[C@@H](C)OC(=O)C[C@H]1OC(C)=O (stereo partly specified),Potency,[2],"inconclusive: 29.8 µM [activator, partial curve, poor fit]"
same,Potency,[3],"inconclusive: 10.6 µM [inhibitor, partial curve]"
CCc1ccc2c(c1)N(CC(C)CN(C)C)c1ccccc1S2 (stereo unspecified),Potency,[4],"inconclusive: 33.5 µM [cytotoxic, single point]"
CC(CN(C)C)CN1c2ccccc2Sc2ccc(C(F)(F)F)cc21 (stereo unspecified),Potency,[1],active: 12.6 µM
CN1CCN(CCC=C2c3ccccc3Sc3ccc(S(=O)(=O)N(C)C)cc32)CC1,Potency,[2],"inconclusive: 33.5 µM [activator, partial curve, poor fit]"
same,Potency,[4],"inconclusive: 29.8 µM [cytotoxic, single point]"
same,Potency,[5],"inconclusive: 33.5 µM [cytotoxic, partial curve, poor fit]"
same,Potency,[3],"inconclusive: 33.5 µM [inhibitor, single point]"
CC(=O)[C@]1(O)Cc2c(O)c3c(c(O)c2[C@@H](O[C@H]2C[C@H](N)[C@H](O)[C@H](C)O2)C1)C(=O)c1c(O)cccc1C3=O,Potency,[2],active: 750 nM and active: 944 nM
same,Potency,[4],"inconclusive: 0.422 µM [cytotoxic, partial curve, poor fit]"
CCC(C)[C@H]1O[C@]2(C=C[C@@H]1C)C[C@@H]1C[C@@H](C/C=C(\C)[C@@H](O[C@H]3C[C@H](OC)[C@@H](O[C@H]4C[C@H](OC)[C@H](NC(C)=O)[C@H](C)O4)[C@H](C)O3)[C@@H](C)/C=C/C=C3\CO[C@@H]4[C@H](O)C(C)=C[C@@H](C(=O)O1)[C@]34O)O2 (stereo partly specified),Potency,[5],"inconclusive: 4.22 µM [cytotoxic, partial curve, poor fit]"
OCCN1CCN(CC/C=C2/c3ccccc3Sc3ccc(Cl)cc32)CC1,Potency,[1],inactive
CC(=O)c1ccc2c(c1)N(CCCN1CCN(CCO)CC1)c1ccccc1S2,Potency,[1],"inconclusive: 28.2 µM [activator, partial curve, poor fit]"
CN1CCC(CN2c3ccccc3Sc3ccccc32)C1 (stereo unspecified),Potency,[3],"inconclusive: 26.6 µM [inhibitor, partial curve, poor fit]"
CCOC(=O)C1=C(COCCN)NC(C)=C(C(=O)OC)C1c1ccccc1Cl (stereo unspecified),Potency,[6],"inconclusive: 12.6 µM [rising, partial curve, poor fit]"
CCCCCCCCCCCCCCCC(=O)O[C@@H]1CC(C)=C(/C=C/C(C)=C/C=C/C(C)=C/C=C/C=C(C)/C=C/C=C(C)/C=C/C2=C(C)C[C@@H](OC(=O)CCCCCCCCCCCCCCC)CC2(C)C)C(C)(C)C1,Potency,[4],"inconclusive: 29.8 µM [cytotoxic, partial curve]"
same,Potency,[6],inactive
CN1[C@@H]2CC[C@H]1CC(OC(c1ccccc1)c1ccccc1)C2 (stereo partly specified),Potency,[1],"inconclusive: 15.8 µM [activator, partial curve] and active: 14.1 µM"
CCN(CC)CCOCCOC(=O)C(CC)(CC)c1ccccc1,Potency,[2],inactive
O=C1CSC2(CCN(CCCN3c4ccccc4Sc4ccc(Cl)cc43)CC2)N1,Potency,[3],"inconclusive: 29.8 µM [inhibitor, partial curve]"
